The source of these data is patent US7635694B2, “Cyclobutenedione-containing compounds as inhibitors of hepatitis C virus NS3 serine protease” (Schering Corporation, priority 2004, dated 2009).

In the test the target is Recombinant heterodimeric HCV NS3/NS4A protease (strain 1a) (Hepatitis C virus genotype 1a, UniProt P27958). Description: Spectrophotometric assay for HCV protease inhibitory activity. Type of test: biochemical. To be noted: chromogenic ester substrate, 30° C., pH 6.5, read-out: Ki* Range. An excerpt:
Assay for HCV Protease Inhibitory Activity:
Spectrophotometric Assay: Spectrophotometric assay for the HCV serine protease can be performed on the inventive compounds by following the procedure described by R. Zhang et al, Analytical Biochemistry, 270 (1999) 268-275, the disclosure of which is incorporated herein by reference. The assay based on the proteolysis of chromogenic ester substrates is suitable for the continuous monitoring of HCV NS3 protease activity. The substrates are derived from the P side of the NS5A-NS5B junction sequence (Ac-DTEDWX(Nva), where X=A or P) whose C-terminal carboxyl groups are esterified with one of four different chromophoric alcohols (3- or 4-nitrophenol, 7-hydroxy-4-methyl-coumarin, or 4-phenylazophenol). Illustrated below are the synthesis, characterization and application of these novel spectrophotometric ester substrates to high throughput screening and detailed kinetic evaluation of HCV NS3 protease inhibitors.
Protein concentrations are determined by the Biorad dye method using recombinant HCV protease standards previously quantified by amino acid analysis. Prior to assay initiation, the enzyme storage buffer (50 mM sodium phosphate pH 8.0, 300 mM NaCl, 10% glycerol, 0.05% lauryl maltoside and 10 mM DTT) is exchanged for the assay buffer (25 mM MOPS pH 6.5, 300 mM NaCl, 10% glycerol, 0.05% lauryl maltoside, 5 μM EDTA and 5 μM DTT) utilizing a Biorad Bio-Spin P-6 prepacked column.
Spectra of Substrates and Products: Spectra of substrates and the corresponding chromophore products are obtained in the pH 6.5 assay buffer. Extinction coefficients are determined at the optimal off-peak wavelength in 1-cm cuvettes (340 nm for 3-Np and HMC, 370 nm for PAP and 400 nm for 4-Np) using multiple dilutions. The optimal off-peak wavelength is defined as that wavelength yielding the maximum fractional difference in absorbance between substrate and product (product OD−substrate OD)/substrate OD).
Protease Assay: HCV protease assays are performed at 30° C. using a 200 μl reaction mix in a 96-well microtiter plate. Assay buffer conditions (25 mM MOPS pH 6.5, 300 mM NaCl, 10% glycerol, 0.05% lauryl maltoside, 5 μM EDTA and 5 μM DTT) are optimized for the NS3/NS4A heterodimer (D. L. Sali et al, ibid.)). Typically, 150 μl mixtures of buffer, substrate and inhibitor are placed in wells (final concentration of DMSO≦4% v/v) and allowed to preincubate at 30° C. for approximately 3 minutes. Fifty μls of prewarmed protease (12 nM, 30° C.) in assay buffer, is then used to initiate the reaction (final volume 200 μl).The plates are monitored over the length of the assay (60 minutes) for change in absorbance at the appropriate wavelength (340 nm for 3-Np and HMC, 370 nm for PAP, and 400 nm for 4-Np) using a Spectromax Plus microtiter plate reader equipped with a monochrometer (acceptable results can be obtained with plate readers that utilize cutoff filters). Proteolytic cleavage of the ester linkage between the Nva and the chromophore is monitored at the appropriate wavelength against a no enzyme blank as a control for non-enzymatic hydrolysis. The evaluation of substrate kinetic parameters is performed over a 30-fold substrate concentration range (˜6-200 μM). Initial velocities are determined using linear regression and kinetic constants are obtained by fitting the data to the Michaelis-Menten equation using non-linear regression analysis (Mac Curve Fit 1.1, K. Raner). Turnover numbers (kcat) are calculated assuming the enzyme is fully active.
For `CN(C)c1c(N(C)C[C@@H](NC(=O)N[C@H](C(=O)N2C[C@H]3[C@@H]([C@H]2C(=O)NC(CC2CC2)C(=O)C(N)=O)C3(C)C)C(C)(C)C)C2CCCCC2)c(=O)c1=O` (some centres unmarked) [compound 100], the Ki was no more than 75 nM.
For `C#CCCC(NC(=O)[C@@H]1[C@@H]2[C@H](CN1C(=O)[C@@H](NC(=O)N[C@H](CN(C)c1c(C3CC3)c(=O)c1=O)C(C)(C)C)C1CCCCC1)C2(C)C)C(=O)C(=O)NCC=C` (some centres unmarked) [compound 101] the value was no more than 75 nM; for `C#CCCC(NC(=O)[C@@H]1[C@@H]2[C@H](CN1C(=O)[C@@H](NC(=O)N[C@H](CN(C)c1c(C(C)(C)C)c(=O)c1=O)C1CCCCC1)C1CCCCC1)C2(C)C)C(=O)C(=O)NCC=C` (some centres unmarked) [compound 102], no more than 75 nM; for `C#CCCC(NC(=O)[C@@H]1[C@@H]2[C@H](CN1C(=O)[C@@H](NC(=O)N[C@H](CN(C)c1c(C(C)(C)C)c(=O)c1=O)C(C)(C)C)C1(C)CCCCC1)C2(C)C)C(=O)C(=O)NC1CC1` (some centres unmarked) [compound 103], no more than 75 nM.
For `C=CCNC(=O)C(=O)C(CCC)NC(=O)[C@@H]1[C@@H]2[C@H](CN1C(=O)[C@@H](NC(=O)N[C@H](CN(C)c1c(C(C)(C)C)c(=O)c1=O)C(C)(C)C)C1CCCCC1)C2(C)C` (some centres unmarked) [compound 104] the value was no more than 75 nM; for `C=CCNC(=O)C(=O)C(CCC)NC(=O)[C@@H]1[C@@H]2[C@H](CN1C(=O)[C@@H](NC(=O)N[C@H](CN(C)c1c(C3CC3)c(=O)c1=O)C(C)(C)C)C1CCCCC1)C2(C)C` (some centres unmarked) [compound 105], no more than 75 nM.
Then `CN(C)c1c(N(C)C[C@@H](NC(=O)N[C@H](C(=O)N2C[C@H]3[C@@H]([C@H]2C(=O)NC(CC2CC2)C(=O)C(N)=O)C3(C)C)C(C)(C)C)C(C)(C)C)c(=O)c1=O` (some centres unmarked) [compound 106], with no more than 75 nM; and `C#CCCC(NC(=O)[C@@H]1[C@@H]2[C@H](CN1C(=O)[C@@H](NC(=O)N[C@H](CN(C)c1c(C(C)(C)C)c(=O)c1=O)C(C)(C)C)C1(C)CCCCC1)C2(C)C)C(=O)C(=O)NCC=C` (some centres unmarked) [compound 107], with no more than 75 nM; and `CN(C[C@@H](NC(=O)N[C@H](C(=O)N1C[C@H]2[C@@H]([C@H]1C(=O)NC(CC1CC1)C(=O)C(N)=O)C2(C)C)C(C)(C)C)C(C)(C)C)c1c(N(C)c2ccccc2)c(=O)c1=O` (some centres unmarked) [compound 108], with no more than 75 nM.
With `CC(C)(C)c1c(NC[C@@H](NC(=O)N[C@H](C(=O)N2C[C@H]3[C@@H]([C@H]2C(=O)NC(CC2CCC2)C(=O)C(N)=O)C3(C)C)C(C)(C)C)C(C)(C)C)c(=O)c1=O` (some centres unmarked) [compound 109], the Ki is no more than 75 nM.
Then `C=CCNC(=O)C(=O)C(CCCC)NC(=O)[C@@H]1[C@@H]2[C@H](CN1C(=O)[C@@H](NC(=O)N[C@H](CN(C)c1c(N(C)C)c(=O)c1=O)C1CCCCC1)C(C)(C)C)C2(C)C` (some centres unmarked) [compound 110], with no more than 75 nM; and `CN(C[C@@H](NC(=O)N[C@H](C(=O)N1C[C@H]2[C@@H]([C@H]1C(=O)NC(CCC(F)(F)F)C(=O)C(=O)NC1CC1)C2(C)C)C1(C)CCCCC1)C(C)(C)C)c1c(C(C)(C)C)c(=O)c1=O` (some centres unmarked) [compound 111], with no more than 75 nM.
For `CC(C)(C)c1c(NC[C@@H](NC(=O)N[C@H](C(=O)N2C[C@H]3[C@@H]([C@H]2C(=O)NC(CC2CC2)C(=O)C(N)=O)C3(C)C)C(C)(C)C)C(C)(C)C)c(=O)c1=O` (some centres unmarked) [compound 112] the value was no more than 75 nM.
For `C=CCNC(=O)C(=O)C(CCC)NC(=O)[C@@H]1[C@@H]2[C@H](CN1C(=O)[C@@H](NC(=O)N[C@H](CN(C)c1c(N(C)C)c(=O)c1=O)C1CCCCC1)C1CCCCC1)C2(C)C` (some centres unmarked) [compound 113] the value was no more than 75 nM.
Regarding `C=CCNC(=O)C(=O)C(CC1CC1)NC(=O)[C@@H]1[C@@H]2[C@H](CN1C(=O)[C@@H](NC(=O)N[C@H](CN(C)c1c(C(C)(C)C)c(=O)c1=O)C(C)(C)C)C1(C)CCCCC1)C2(C)C` (some centres unmarked) [compound 114], the inhibition constant (Ki) was no more than 75 nM.
Then `CN(C)c1c(N(C)C[C@@H](NC(=O)N[C@H](C(=O)N2C[C@H]3[C@@H]([C@H]2C(=O)NC(CC2CCC2)C(=O)C(N)=O)C3(C)C)C(C)(C)C)C(C)(C)C)c(=O)c1=O` (some centres unmarked) [compound 115], with no more than 75 nM; and `C=CCNC(=O)C(=O)C(CCC)NC(=O)[C@@H]1[C@@H]2[C@H](CN1C(=O)[C@@H](NC(=O)N[C@H](CN(C)c1c(C(C)C)c(=O)c1=O)C(C)(C)C)C1CCCCC1)C2(C)C` (some centres unmarked) [compound 116], with no more than 75 nM; and `C=CCNC(=O)C(=O)C(CCC)NC(=O)[C@@H]1[C@@H]2[C@H](CN1C(=O)[C@@H](NC(=O)N[C@H](CN(C)c1c(C(C)(C)C)c(=O)c1=O)C(C)(C)C)C1(C)CCCCC1)C2(C)C` (some centres unmarked) [compound 117], with no more than 75 nM.
Consider `CC(C)(C)[C@H](NC(=O)N[C@H](CNc1c(C2CC2)c(=O)c1=O)C(C)(C)C)C(=O)N1C[C@H]2[C@@H]([C@H]1C(=O)NC(CC1CC1)C(=O)C(N)=O)C2(C)C` (some centres unmarked) [compound 118], for which the Ki is no more than 75 nM.
For `CN(C[C@@H](NC(=O)N[C@H](C(=O)N1C[C@H]2[C@@H]([C@H]1C(=O)NC(CC1CC1)C(=O)C(N)=O)C2(C)C)C(C)(C)C)C(C)(C)C)c1c(C(C)(C)C)c(=O)c1=O` (some centres unmarked) [compound 119] the value was no more than 75 nM.
Then `CN(C[C@@H](NC(=O)N[C@H](C(=O)N1C[C@H]2[C@@H]([C@H]1C(=O)NC(CC1CC1)C(=O)C(N)=O)C2(C)C)C(C)(C)C)C(C)(C)C)c1c(C2CC2)c(=O)c1=O` (some centres unmarked) [compound 120], with no more than 75 nM; and `C#CCCC(NC(=O)[C@@H]1[C@@H]2[C@H](CN1C(=O)[C@@H](NC(=O)N[C@H](CN(C)c1c(N(C)C)c(=O)c1=O)C(C)(C)C)C(C)(C)C)C2(C)C)C(=O)C(=O)NCC=C` (some centres unmarked) [compound 121], with no more than 75 nM; and `C#CCCC(NC(=O)[C@@H]1[C@@H]2[C@H](CN1C(=O)[C@@H](NC(=O)N[C@H](CN(C)c1c(C3CC3)c(=O)c1=O)C(C)(C)C)C(C)(C)C)C2(C)C)C(=O)C(=O)NCC=C` (some centres unmarked) [compound 122], with no more than 75 nM.
On to `C=CCNC(=O)C(=O)C(CCC(F)(F)F)NC(=O)[C@@H]1[C@@H]2[C@H](CN1C(=O)[C@@H](NC(=O)N[C@H](CN(C)c1c(C(C)(C)C)c(=O)c1=O)C(C)(C)C)C1(C)CCCCC1)C2(C)C` (some centres unmarked) [compound 123], for which the Ki is no more than 75 nM.
On to `CC(C)(C)[C@H](NC(=O)N[C@H](CNc1c(C2CC2)c(=O)c1=O)C(C)(C)C)C(=O)N1C[C@H]2[C@@H]([C@H]1C(=O)NC(CC1CCC1)C(=O)C(N)=O)C2(C)C` (some centres unmarked) [compound 124], for which the inhibition constant (Ki) is no more than 75 nM.
Then `C=CCNC(=O)C(=O)C(CCC)NC(=O)[C@@H]1[C@@H]2[C@H](CN1C(=O)[C@@H](NC(=O)N[C@H](CN(C)c1c(C3CC3)c(=O)c1=O)C(C)(C)C)C(C)(C)C)C2(C)C` (some centres unmarked) [compound 125], with no more than 75 nM; and `CN(C)c1c(NC[C@@H](NC(=O)N[C@H](C(=O)N2C[C@H]3[C@@H]([C@H]2C(=O)NC(CC2CC2)C(=O)C(N)=O)C3(C)C)C(C)(C)C)C(C)(C)C)c(=O)c1=O` (some centres unmarked) [compound 126], with no more than 75 nM.
For the molecule `C#CCCC(NC(=O)[C@@H]1[C@@H]2[C@H](CN1C(=O)[C@@H](NC(=O)N[C@H](CNc1c(N(C)C)c(=O)c1=O)C(C)(C)C)C(C)(C)C)C2(C)C)C(=O)C(=O)NCC=C` (some centres unmarked) [compound 127], the Ki was no more than 75 nM.
Then `CCCC(NC(=O)[C@@H]1[C@@H]2[C@H](CN1C(=O)[C@@H](NC(=O)N[C@H](CN(C)c1c(C(C)(C)C)c(=O)c1=O)C(C)(C)C)C1(C)CCCCC1)C2(C)C)C(=O)C(=O)NC1CC1` (some centres unmarked) [compound 128], with no more than 75 nM.
